{"source": "paper PMC6526509", "about": "(Science signaling, 2018)", "binders": {"B1": {"name": "Gαi1 fused to cyan fluorescent protein (Gαi1-CFP) (natural protein)", "chain": "not shown"}}, "molecular_target": "T1, GST-tagged Ric-8A, unphosphorylated (rat, UniProt Q80ZG1 1-530)", "T1 sequence (looked up)": "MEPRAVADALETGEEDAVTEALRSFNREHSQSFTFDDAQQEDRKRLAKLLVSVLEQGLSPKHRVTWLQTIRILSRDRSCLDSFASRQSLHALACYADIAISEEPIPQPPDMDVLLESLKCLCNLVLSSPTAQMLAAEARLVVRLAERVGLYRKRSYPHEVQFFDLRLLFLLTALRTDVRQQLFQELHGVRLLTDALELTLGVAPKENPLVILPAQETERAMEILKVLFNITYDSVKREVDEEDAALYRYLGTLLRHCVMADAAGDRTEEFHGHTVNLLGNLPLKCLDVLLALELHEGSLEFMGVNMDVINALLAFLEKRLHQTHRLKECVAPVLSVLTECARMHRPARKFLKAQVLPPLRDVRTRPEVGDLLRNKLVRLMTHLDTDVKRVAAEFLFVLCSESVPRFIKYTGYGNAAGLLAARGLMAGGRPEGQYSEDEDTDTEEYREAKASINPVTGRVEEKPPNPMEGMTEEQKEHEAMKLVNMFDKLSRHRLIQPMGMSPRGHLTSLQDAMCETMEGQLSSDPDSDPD", "assay": "flow cytometry protein interaction assay", "data": [{"binder": "B1", "values": [{"measurement": "Kd", "value": "596 ± 205", "unit": "nM"}]}]}
